# Test results from the supplement of paper PMC8728848.
# This is one part of the list.
# Columns and labels:
# Experiment in all cases: glycan array binding signal (z-score within array); higher = stronger binding
# Settings in all cases: glycan notation: IUPAC condensed, linker removed
# Fuc(a1-2)Gal = biological target: Fuc(a1-2)Gal
# Outline: (§1)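 Columns mapping to the same glycan were averaged after glycan names were converted to IUPAC-condensed notation. The data come from 3228 arrays in the Consortium for Functional Glycomics database, limited to those with an available protein sequence. Binding is reported as a within-array Z-score averaged across arrays of one protein sequence and across linkers.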
# Fuc(a1-2)Gal(b1-3)GalNAc = biological target: Fuc(a1-2)Gal(b1-3)GalNAc
# Outline: as §1
# [1] = biological target: Fuc(a1-2)Gal(b1-3)GalNAc(a1-3)[Fuc(a1-2)]Gal(b1-4)Glc
# Outline: as §1
# [2] = biological target: Fuc(a1-2)Gal(b1-3)GalNAc(a1-3)[Fuc(a1-2)]Gal(b1-4)GlcNAc
# Outline: as §1
# [3] = biological target: Fuc(a1-2)Gal(b1-3)GalNAc(b1-3)Gal
# Outline: as §1
# [4] = biological target: Fuc(a1-2)Gal(b1-3)GalNAc(b1-3)Gal(a1-4)Gal(b1-4)Glc
# Outline: as §1
# [5] = biological target: Fuc(a1-2)Gal(b1-3)GalNAc(b1-4)[Neu5Ac(a2-3)]Gal(b1-4)Glc
# Outline: as §1
# Fuc(a1-2)Gal(b1-3)GlcNAc = biological target: Fuc(a1-2)Gal(b1-3)GlcNAc
# Outline: as §1
# [6] = biological target: Fuc(a1-2)Gal(b1-3)GlcNAc(b1-2)Man(a1-3)[Fuc(a1-2)Gal(b1-3)GlcNAc(b1-2)Man(a1-6)]Man(b1-4)GlcNAc(b1-4)GlcNAc
# Outline: as §1
# [7] = biological target: Fuc(a1-2)Gal(b1-3)GlcNAc(b1-2)Man(a1-3)[Fuc(a1-2)Gal(b1-3)GlcNAc(b1-2)Man(a1-6)]Man(b1-4)GlcNAc(b1-4)[Fuc(a1-6)]GlcNAc
# Outline: as §1
# [8] = biological target: Fuc(a1-2)Gal(b1-3)GlcNAc(b1-3)Gal(b1-4)Glc
# Outline: as §1
# [9] = biological target: Fuc(a1-2)Gal(b1-3)GlcNAc(b1-3)GalNAc
# Outline: as §1
# [10] = biological target: Fuc(a1-2)Gal(b1-3)GlcNAc(b1-3)[Fuc(a1-3)[Gal(b1-4)]GlcNAc(b1-6)]Gal(b1-4)Glc
# Outline: as §1
# [11] = biological target: Fuc(a1-2)Gal(b1-3)GlcNAc(b1-3)[Gal(b1-4)GlcNAc(b1-6)]Gal(b1-4)Glc
# Outline: as §1
# [12] = biological target: Fuc(a1-2)Gal(b1-3)[Fuc(a1-4)]GlcNAc
# Outline: as §1
# [13] = biological target: Fuc(a1-2)Gal(b1-3)[Fuc(a1-4)]GlcNAc(b1-2)Man(a1-3)[Fuc(a1-2)Gal(b1-3)[Fuc(a1-4)]GlcNAc(b1-2)Man(a1-6)]Man(b1-4)GlcNAc(b1-4)GlcNAc
# Outline: as §1
# [14] = biological target: Fuc(a1-2)Gal(b1-3)[Fuc(a1-4)]GlcNAc(b1-3)[Fuc(a1-3)[Gal(b1-4)]GlcNAc(b1-6)]Gal(b1-4)Glc
# Outline: as §1
# [15] = biological target: Fuc(a1-2)Gal(b1-3)[Fuc(a1-4)]GlcNAc(b1-3)[Gal(b1-4)GlcNAc(b1-6)]Gal(b1-4)Glc
# Outline: as §1
# Fuc(a1-2)Gal(b1-4)Glc = biological target: Fuc(a1-2)Gal(b1-4)Glc
# Outline: as §1
# Fuc(a1-2)Gal(b1-4)Glc6S = biological target: Fuc(a1-2)Gal(b1-4)Glc6S
# Outline: as §1
# Fuc(a1-2)Gal(b1-4)GlcNAc = biological target: Fuc(a1-2)Gal(b1-4)GlcNAc
# Outline: as §1
# [16] = biological target: Fuc(a1-2)Gal(b1-4)GlcNAc(b1-2)Man(a1-3)[Fuc(a1-2)Gal(b1-4)GlcNAc(b1-2)Man(a1-6)]Man(b1-4)GlcNAc(b1-4)GlcNAc
# Outline: as §1
# [17] = biological target: Fuc(a1-2)Gal(b1-4)GlcNAc(b1-2)Man(a1-3)[Fuc(a1-2)Gal(b1-4)GlcNAc(b1-2)Man(a1-6)]Man(b1-4)GlcNAc(b1-4)[Fuc(a1-6)]GlcNAc
# Outline: as §1
# [18] = biological target: Fuc(a1-2)Gal(b1-4)GlcNAc(b1-2)[Fuc(a1-2)Gal(b1-4)GlcNAc(b1-4)]Man(a1-3)[Fuc(a1-2)Gal(b1-4)GlcNAc(b1-2)Man(a1-6)]Man(b1-4)GlcNAc(b1-4)GlcNAc
# Outline: as §1
# [19] = biological target: Fuc(a1-2)Gal(b1-4)GlcNAc(b1-3)Gal(b1-4)GlcNAc
# Outline: as §1
# [20] = biological target: Fuc(a1-2)Gal(b1-4)GlcNAc(b1-3)Gal(b1-4)GlcNAc(b1-3)Gal(b1-4)GlcNAc
# Outline: as §1
# [21] = biological target: Fuc(a1-2)Gal(b1-4)GlcNAc(b1-3)GalNAc
# Outline: as §1
# [22] = biological target: Fuc(a1-2)Gal(b1-4)GlcNAc6S
# Outline: as §1
# [23] = biological target: Fuc(a1-2)Gal(b1-4)[Fuc(a1-3)]GlcNAc
# Outline: as §1
# [24] = biological target: Fuc(a1-2)Gal(b1-4)[Fuc(a1-3)]GlcNAc(b1-2)Man(a1-3)[Fuc(a1-2)Gal(b1-4)[Fuc(a1-3)]GlcNAc(b1-2)Man(a1-6)]Man(b1-4)GlcNAc(b1-4)GlcNAc
# Outline: as §1
binder,measurement,setting,value
Gal 2 (Canis lupus) (protein) MSGKFEVMNMDMKLGGTLKIKGKIAGDADGFVINLGQGSDKLNLHFNPRFHESVIVCNSRNWGQEQRDKHMCFSPGSEVKFTVTFENDGFKVKLPDGHQLTFPNRLGHSHLSYLGVQGGLKVSSFKIE,glycan array binding signal (z-score),Fuc(a1-2)Gal,0.08
same,glycan array binding signal (z-score),Fuc(a1-2)Gal(b1-3)GalNAc,-0.366
same,glycan array binding signal (z-score),[1],0.099
same,glycan array binding signal (z-score),[2],-0.197
same,glycan array binding signal (z-score),[3],-0.045
same,glycan array binding signal (z-score),[4],0.103
same,glycan array binding signal (z-score),[5],-0.028
same,glycan array binding signal (z-score),Fuc(a1-2)Gal(b1-3)GlcNAc,-0.181
same,glycan array binding signal (z-score),[6],0.59
same,glycan array binding signal (z-score),[7],-0.223
same,glycan array binding signal (z-score),[8],0.017
same,glycan array binding signal (z-score),[9],-0.114
same,glycan array binding signal (z-score),[10],-0.115
same,glycan array binding signal (z-score),[11],-0.21
same,glycan array binding signal (z-score),[12],-0.074
same,glycan array binding signal (z-score),[13],-0.307
same,glycan array binding signal (z-score),[14],0.019
same,glycan array binding signal (z-score),[15],-0.12
same,glycan array binding signal (z-score),Fuc(a1-2)Gal(b1-4)Glc,-0.11
same,glycan array binding signal (z-score),Fuc(a1-2)Gal(b1-4)Glc6S,-0.159
same,glycan array binding signal (z-score),Fuc(a1-2)Gal(b1-4)GlcNAc,0.225
same,glycan array binding signal (z-score),[16],1.43
same,glycan array binding signal (z-score),[17],0.046
same,glycan array binding signal (z-score),[18],0.211
same,glycan array binding signal (z-score),[19],-0.231
same,glycan array binding signal (z-score),[20],-0.156
same,glycan array binding signal (z-score),[21],-0.289
same,glycan array binding signal (z-score),[22],-0.218
same,glycan array binding signal (z-score),[23],-0.245
same,glycan array binding signal (z-score),[24],0.795
